Data taken from PubChem BioAssay AID1460 (National Center for Advancing Translational Sciences (NCATS), 2008).
Several values for one entry are separate records, joined by “and”; a condition that tells them apart may be missing. Equal values may be shown once. Screen size: about 270,000 compounds; about 5,800 (2.1%) were called active. Inconclusive results, whose numbers are uncertain, are shown with a selection of clear calls. Calls follow the shape of the dose curve; as a rule, active = well fitted inhibition curve with a large enough effect; inconclusive = small, poorly fitted or top-dose-only effect; inactive = flat fitted curve, though single readings scatter. Potencies beside an inconclusive call are fits to weak or partial responses and may not hold up.

target: Microtubule-associated protein tau (Homo sapiens) (UniProt P10636); test: qHTS for Inhibitors of Tau Fibril Formation, Thioflavin T Binding; conditions: recombinant tau K18 P301L (four-repeat tau fragment), heparin-induced fibrillization, ThT fluorescence; series mostly up to 57.4 µM; also: nearly all actives have a fitted effect of over 55% in size
Chain of UniProt P10636 (P10636 whole entry, looked up, the tested form may be a part): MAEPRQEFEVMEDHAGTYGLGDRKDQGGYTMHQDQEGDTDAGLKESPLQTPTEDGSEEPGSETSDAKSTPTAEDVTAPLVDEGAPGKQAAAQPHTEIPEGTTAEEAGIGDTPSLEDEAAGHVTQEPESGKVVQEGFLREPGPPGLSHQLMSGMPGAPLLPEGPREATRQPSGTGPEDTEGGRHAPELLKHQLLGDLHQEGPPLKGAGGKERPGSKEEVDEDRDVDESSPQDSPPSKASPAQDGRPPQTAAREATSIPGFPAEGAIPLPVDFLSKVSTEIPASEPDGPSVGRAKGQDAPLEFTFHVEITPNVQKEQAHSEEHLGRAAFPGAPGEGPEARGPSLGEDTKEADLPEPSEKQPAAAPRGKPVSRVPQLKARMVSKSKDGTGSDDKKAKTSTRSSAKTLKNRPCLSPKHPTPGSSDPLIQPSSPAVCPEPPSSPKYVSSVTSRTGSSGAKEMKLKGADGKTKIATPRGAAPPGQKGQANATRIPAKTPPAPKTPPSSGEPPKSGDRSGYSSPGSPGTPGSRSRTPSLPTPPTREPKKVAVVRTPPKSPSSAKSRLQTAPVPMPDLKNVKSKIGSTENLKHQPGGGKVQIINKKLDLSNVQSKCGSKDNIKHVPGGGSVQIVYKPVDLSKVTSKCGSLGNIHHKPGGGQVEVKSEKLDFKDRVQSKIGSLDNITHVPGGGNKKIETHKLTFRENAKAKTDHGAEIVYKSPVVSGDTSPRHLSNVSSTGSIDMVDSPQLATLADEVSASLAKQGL
How it was run: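 Aggregation was driven by heparin (20 uM final) acting on recombinant tau […] bearing P301L in 100 mM sodium acetate pH 7; fibrils were detected with Thioflavin T.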
Potency is read from the fitted curve at half-maximal effect; tags tell the direction and shape of the fitted curve.

| SMILES | Potency |
| --- | --- |
| CCOC(=O)N1CCc2c(sc(NCc3sccc3C)c2C(=O)Nc2cc(Cl)ccc2OC)C1 | inconclusive: 28.2 µM [inhibitor, single point] |
| CCCN(CCO)CCCc1ccccc1 | inactive |
| COc1ccc(C(=O)c2cc3cccc(OC)c3o2)cc1 | inconclusive: 31.6 µM [inhibitor, single point] |
| COc1cc(N2CCCC2)c(OC)cc1/C=C(/C#N)c1cccc(Br)c1 | inconclusive: 11.2 µM [inhibitor, partial curve] |
| COC(=O)CN1C(=O)CSc2ccc(S(=O)(=O)Nc3c(C)cc(C)cc3C)cc21 | inactive |
| CCOC(=O)c1ccc(NC(=O)CSc2nc(-c3cccs3)cc(C(F)(F)F)c2C#N)cc1 | inactive |
| CC(C)(C)c1ccc(C(=O)/C(C#N)=C/c2cccs2)cc1 | inconclusive: 28.2 µM [inhibitor, single point] |
| Cc1ccc(S(=O)(=O)N(C)C)cc1NC(=O)c1cc(C(C)(C)C)nn1Cc1ccccc1 | inactive |
| COc1cc(NC(=O)c2cc3ccc4cccnc4c3[nH]2)cc(OC)c1OC | inconclusive: 1.41 µM [inhibitor, partial curve] |
| O=C(/C=C/c1ccc(O)c(O)c1)O[C@H](Cc1ccc(O)c(O)c1)C(=O)O | active: 12.6 µM |
| Cc1ccccc1NC(=O)CCNC(=O)Cn1ccc2ccccc2c1=O | inactive |
| O=C(Nc1ccc(F)cc1)Nc1ccc(N2CCOCC2)c2nonc12 | active: 2.82 µM |
| CC(Nc1ccc(-c2nc(-c3ccco3)no2)cc1[N+](=O)[O-])c1ccccc1 (stereo not given) | inactive |
| Cc1ccnc(SCC(=O)Nc2oc(-c3ccccc3)c(-c3ccccc3)c2C#N)n1 | inactive |
| COCC(C)n1c(C)cc(C(=O)COC(=O)c2oc3ccccc3c2C)c1C (stereo not given) | inconclusive: 17.8 µM [inhibitor, partial curve] |
| CC(C)(C)OC(=O)NNC(=O)C12CC3CC(CC(C3)C1)C2 | inactive |
| COc1ccccc1NS(=O)(=O)c1cc(NC(=O)c2cc[n+]([O-])cc2)ccc1N1CCCC1 | inconclusive: 20 µM [inhibitor, single point] |
| C1CCC(N=C(NC23CC4CC(CC(C4)C2)C3)N2CCOCC2)CC1 | inactive |
| Cc1ccc(-c2noc(CCC(=O)N(C)c3ccccc3C)n2)cc1 | inactive |
| NC1CCN(O)C1=O (stereo not given) | inconclusive: 39.8 µM [inhibitor, single point] |
| CC(=O)Nc1ccc(NC(=O)c2c(C)nn(-c3ccccc3)c2-n2cccc2)cc1 | inconclusive: 35.5 µM [inhibitor, single point] |
| Cc1ccc(CNc2ncnc3c2cnn3-c2ccc(C)cc2C)cc1 | inconclusive: 39.8 µM [inhibitor, single point] |
| CCSc1oc(-c2ccco2)nc1S(=O)(=O)c1ccc(F)cc1 | inconclusive: 20 µM [inhibitor, single point] |
| COc1ccc(-c2cc(OC(=O)c3cccc(C)c3)c3c(C)oc(C)c3c(=O)c2)cc1 | inconclusive: 35.5 µM [inhibitor, partial curve] |

| SMILES | Potency |
| --- | --- |
| Cc1cc(C)n(-c2nc(C)c(C)c(=O)n2CC(=O)Nc2ccc(Cl)c(Cl)c2)n1 | inactive |
| Cn1c(=O)c2[nH]c(N=Nc3ccc(N)cc3N)nc2n(C)c1=O | active: 14.1 µM |
| CCOc1ccc(NC(=O)Cn2cnc3c(oc4ccccc43)c2=O)cc1 | inconclusive: 15.8 µM [inhibitor, partial curve] |
| COc1ccc(CC(=O)Nc2ccc(C(=O)Nc3nccs3)cc2)cc1OC | inconclusive: 17.8 µM [inhibitor, partial curve] |
| O=C(O)CCc1nn2c3ccccc3n(CC(=O)c3ccccc3)c2nc1=O | inactive |
| N#Cc1c(Sc2ncc(C(F)(F)F)cc2Cl)nsc1C/C=N\OCc1c(F)cccc1Cl | inconclusive: 11.2 µM [inhibitor, partial curve] |
| Cc1ccsc1CCN1C(=O)N(c2ccc(F)cc2)C(=O)C1CC(=O)Nc1ccccc1 (stereo not given) | inactive |
| Cc1ccc(C(=O)O)cc1Nc1ncnc2sc3c(c12)CCC3 | inconclusive: 39.8 µM [inhibitor, single point] |
| CCc1ccc(Oc2coc3cc(OCC(=O)Nc4cc(C)ccc4C)ccc3c2=O)cc1 | inactive |
| O=C(NCc1nnc(SCc2ccccc2)n1-c1ccccc1)C12CC3CC(CC(C3)C1)C2 | inactive |
| CN1C(=O)Cc2cc(S(=O)(=O)CCC(=O)N3CCN(c4cccc(Cl)c4)CC3)ccc21 | inconclusive: 17.8 µM [inhibitor, partial curve] |
| CCOc1ccc(C(=O)Nc2nnc(NC(=S)Nc3ccccc3)s2)cc1 | inactive |
| NNC(=S)Nc1ccccc1Cl | inconclusive: 28.2 µM [inhibitor, single point] |
| Cc1nc(Nc2ccccc2)c2nc(-c3ccccc3)n(CCN3CCOCC3)c2n1 | inconclusive: 35.5 µM [inhibitor, single point] |
| Cc1ccc(C(=O)CSc2n[nH]c(-c3ccco3)n2)cc1C | inconclusive: 7.94 µM [inhibitor, partial curve] |
| Oc1ccccc1/C=N/Nc1nn[nH]n1 | inactive |
| O=C(Nc1cccc(Cl)c1)c1ccc(NCCCN2CCOCC2)c([N+](=O)[O-])c1 | active: 14.1 µM |
| Cc1ccc(S(=O)(=O)N/N=C/c2cc(Br)ccc2O)cc1 | inconclusive: 39.8 µM [inhibitor, single point] |
| C/C(=N\NC(=O)c1c(Cl)c(C)nn1C)c1cccc(NC(=O)COc2ccc(Cl)cc2)c1 | inconclusive: 0.631 µM [inhibitor, full curve] |
| CC(=O)[C@]1(O)CCC2C3C=C(Cl)C4=CC(=O)C5CC5[C@@]4(C)C3CC[C@]21C (stereo not given in full) | inactive |
| CCCC(C)c1nnc(NC(=O)CN2C(=O)c3ccccc3C2=O)s1 (stereo not given) | inactive |
| C=CCNC(=S)N1CCN(c2ccccc2Cl)CC1 | inconclusive: 25.1 µM [inhibitor, single point] |
| O=C(/C=C/c1ccccc1)N1CCN(c2ccc([N+](=O)[O-])c(N3CCOCC3)c2)CC1 | inconclusive: 14.1 µM [inhibitor, partial curve] |
| O=C(N/N=C/c1ccsc1)c1ccc2ccccc2n1 | inconclusive: 1.41 µM [inhibitor, partial curve, poor fit] |

| SMILES | Potency |
| --- | --- |
| O=Cc1c(-c2ccccc2)nc2ccccn12 | inactive |
| CCOc1ccc(NCc2cccn2-c2nnc(N3CCC(C(=O)NCc4cccc(OC)c4)CC3)s2)cc1 | inconclusive: 5.01 µM [inhibitor, partial curve] |
| CCCn1cc(S(=O)(=O)c2cc(C)ccc2C)c(=O)c2cc(F)c(N3CCCCCC3)cc21 | inactive |
| O=C(Cc1ccc(Cl)cc1)Nc1ccc(NC(=O)c2cccs2)cc1 | inconclusive: 39.8 µM [inhibitor, single point] |
| O=C(Nc1cccc2c1[nH]c1ccccc12)C(F)(F)F | inconclusive: 17.8 µM [inhibitor, single point] |
| CN(Cc1ncc[nH]1)Cc1cn(-c2ccccc2)nc1-c1ccc2c(c1)OCO2 | inactive |
| CCC(C)NC(=O)c1ccc2c(c1)N=C(C)c1cc(C)ccc1S2 (stereo not given) | inactive |
| NC(=O)CSC1=N/C(=C\c2ccco2)C(=O)N1c1ccc(OC(F)F)cc1 | inconclusive: 22.4 µM [inhibitor, single point] |
| Cc1ccc(CSc2nc3c(c(SCC(=O)O)n2)CCCC3)cc1 | inconclusive: 28.2 µM [inhibitor, single point] |
| Cc1cc(C)c2c(=O)cc(C(=O)Nc3ccc(S(=O)(=O)Nc4onc(C)c4C)cc3)oc2c1 | inconclusive: 10 µM [inhibitor, partial curve] |
| N/C(=N\OC(=O)Cc1ccc([N+](=O)[O-])cc1)c1ccccn1 | inconclusive: 25.1 µM [inhibitor, single point] |
| Cn1cc(/C=C2\SC(=S)N(NC(=O)c3ccccc3)C2=O)c2ccccc21 | inconclusive: 0.398 µM [inhibitor, full curve] |
| COC(=O)c1ccccc1NC(=O)COc1ccc(S(=O)(=O)NC(C)C)cc1 | inconclusive: 20 µM [inhibitor, single point] |
| COc1ccc(O)c(/C=N/Nc2nc(Nc3ccccc3)nc(-n3nc(C)cc3C)n2)c1 | inconclusive: 5.01 µM [inhibitor, partial curve] |
| CC1CCc2cc(F)ccc2N1C(=O)CCl (stereo not given) | inactive |
| Cc1cc(C(=O)CN2C(=O)c3ccccc3S2(=O)=O)c(C)n1CC1CCCO1 (stereo not given) | inactive |
| CCOC(=O)N1CCN(c2cc(NCCO)c([N+](=O)[O-])c3nonc23)CC1 | inconclusive: 15.8 µM [inhibitor, partial curve] |
| COc1ccc(Cl)cc1N(C)C(=O)Cc1noc2ccc(C)cc12 | inconclusive: 31.6 µM [inhibitor, partial curve] |
| Cc1cccc(CCNC(=O)c2ccc3c(c2)nc2n3CCCCC2)c1 | inconclusive: 2.82 µM [inhibitor, partial curve] |
| Cc1nc2c(-c3ccc(F)cc3)c(C)nn2c(C)c1CCC(=O)N1CCN(c2ccc(F)cc2)CC1 | inconclusive: 28.2 µM [inhibitor, single point] and inconclusive: 17.8 µM [inhibitor, single point] |
| N#Cc1ccccc1Sc1ccccc1C(=O)OCC(=O)NC1CCCCC1 | inconclusive: 12.6 µM [activator, partial curve, poor fit] |
| CCOC(=O)/C(=C\c1ccc(Cl)cc1)c1nc2sc(C)c(C)c2c(=O)[nH]1 | inconclusive: 25.1 µM [inhibitor, partial curve] |
